This note sets out measurements from PubChem BioAssay (NCI).

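1) Cells in 96-well plates. 2) Compound, 48 h, 5 concentrations. 3) Linear interpolation between surrounding doses. 4) Unreached endpoint = highest concentration. GI50 = concentration required for 50% inhibition of growth. TGI denotes the concentration required for complete inhibition of growth.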 A value given as a limit tells only on which side of the number the result lay.

As a reminder, the GI50 is the concentration at which growth is held to half of that of the control. One may read the TGI as the concentration giving total growth inhibition. Higher therefore signals lower sensitivity of the cells.

The experiment has as its system NCI-H322M lung. As to the kind of experiment: DTP human tumour cell line panel, 48 h.
As for `CCCCCCNC(=O)Oc1ccc(/C(=C(\C)c2ccc(Cl)cc2)c2ccc(OCCN(C)C)cc2)cc1`, the GI50 was 3.84 µM and the TGI was 16.5 µM.

`O=C(/C=C/c1cc(Cl)ccc1Cl)Nc1ncc(Cc2ccc(Cl)cc2)s1`: the GI50 is 0.485 µM and the TGI worked out at 30 µM.

Regarding `O=C(CSc1nc2sc3c(c2c(=O)n1-c1ccc(Cl)cc1)CCCC3)NNC(=O)Nc1cccc(C(F)(F)F)c1`, the GI50 was 3.96 µM and the TGI was greater than 100 µM.
